From patent US20240262848A1, “HETEROCYCLIC COMPOUNDS, COMPOSITIONS THEREOF, AND METHODS OF TREATMENT THEREWITH” (BeiGene, Ltd., priority 2022, published 2024)

These compounds were tested against GST-tagged GDP-loaded WT KRAS (amino acids 1-188) (Homo sapiens, UniProt P01116) (assay: KRAS WT probe displacement assay (run with the KRAS G12D assay, TR-FRET)). Settings: Table 5; WT KRAS 3 nM, biotinylated probe 1 60 nM.
Type: binding
`CNCCN1CCCOc2nc(-c3cc(N)cc(Cl)c3C(F)(F)F)c(F)c3nc(OC[C@@]45CCCN4C[C@H](F)C5)nc1c23` [Example 17, 3-chloro-5-(4-fluoro-2-(((2R,7aS)-2-fluorotetrahydro-1H-pyrrolizin-7a(5H)-yl)methoxy)-11-(2-(methylamino)ethyl)-8,9,10,11-tetrahydro-7-oxa-1,3,6,11-tetraazacycloocta[de]naphthalen-5-yl)-4-(trifluoromethyl)aniline] gave an IC50 of 0.188 µM. `CN1c2nc(OC[C@@]34CCCN3C[C@H](F)C4)nc3c(F)c(-c4cc(N)cc(Cl)c4C(F)(F)F)nc(c23)OCC2CNCC21` (stereo partly drawn) [Example 27, 3-chloro-5-(4-fluoro-2-(((2R,7aS)-2-fluorotetrahydro-1H-pyrrolizin-7a(5H)-yl)methoxy)-12-methyl-8a, 9,10,11,11a, 12-hexahydro-8H-7-oxa-1,3,6,10,12-pentaazacyclopenta[5,6]cycloocta[1,2,3-de]naphthalen-5-yl)-4-(trifluoromethyl)aniline] was tested, and the IC50 was 0.0029 µM. With `CNCCN1c2nc(OC[C@@]34CCCN3C[C@H](F)C4)nc3c(F)c(-c4cc(N)cc(Cl)c4C(F)(F)F)nc(c23)O[C@H]2CCCC[C@@H]21` [Example 48, 3-chloro-5-((7aS,11aS)-4-fluoro-2-(((2R,7aS)-2-fluorotetrahydro-1H-pyrrolizin-7a(5H)-yl)methoxy)-12-(2-(methylamino)ethyl)-7a, 8,10,11,11a, 12-hexahydro-9H-7-oxa-1,3,6,12-tetraazapleiaden-5-yl)-4-(trifluoromethyl)aniline] the IC50 was 0.028 µM. With `CNCCN1c2nc(OC[C@@]34CCCN3C[C@H](F)C4)nc3c(F)c(-c4cc(N)cc(Cl)c4C(F)(F)F)nc(c23)OCCC12CC2` [Example 42, 3-chloro-5-(4-fluoro-2-(((2R,7aS)-2-fluorotetrahydro-1H-pyrrolizin-7a(5H)-yl)methoxy)-11-(2-(methylamino)ethyl)-8,9-dihydro-11H-7-oxa-1,3,6,11-tetraazaspiro[cycloocta[de]naphthalene-10,1′-cyclopropan]-1(11a), 2,3a, 4,6-pentaen-5-yl)-4-(trifluoromethyl)aniline] the IC50 was 0.0014 µM. Compound `CN(C)CCN1c2nc(OC[C@@]34CCCN3C[C@H](F)C4)nc3c(F)c(-c4cc(N)cc(Cl)c4C(F)(F)F)nc(c23)OCCC12CC2` [Example 43, 3-chloro-5-(11-(2-(dimethylamino)ethyl)-4-fluoro-2-(((2R,7aS)-2-fluorotetrahydro-1H-pyrrolizin-7a(5H)-yl)methoxy)-8,9-dihydro-11H-7-oxa-1,3,6,11-tetraazaspiro[cycloocta[de]naphthalene-10,1′-cyclopropan]-1(11a), 2,3a, 4,6-pentaen-5-yl)-4-(trifluoromethyl)aniline] has an IC50 of 0.0021 µM. Compound `CN(C)CCN1c2nc(OC[C@@]34CCCN3C[C@H](F)C4)nc3c(F)c(-c4cc(N)cc(Cl)c4C(F)(F)F)nc(c23)OCC12CCC2` [Example 37, 3-chloro-5-(10′-(2-(dimethylamino)ethyl)-4′-fluoro-2′-(((2R,7aS)-2-fluorotetrahydro-1H-pyrrolizin-7a(5H)-yl)methoxy)-8′H, 10′H-7′-oxa-1′,3′,6′,10′-tetraazaspiro[cyclobutane-1,9′-cyclohepta[de]naphthalen]-1′(10a′), 2′,3a′, 3 al′(6a′), 5′-pentaen-5′-yl)-4-(trifluoromethyl)aniline] has an IC50 of 0.0087 µM. `CNCC(C)N1CCCOc2nc(-c3cc(N)cc(Cl)c3C(F)(F)F)c(F)c3nc(OC[C@@]45CCCN4C[C@H](F)C5)nc1c23` (stereo partly drawn) [Example 39, 3-chloro-5-(4-fluoro-2-(((2R,7aS)-2-fluorotetrahydro-1H-pyrrolizin-7a(5H)-yl)methoxy)-11-(1-(methylamino)propan-2-yl)-8,9,10,11-tetrahydro-7-oxa-1,3,6,11-tetraazacycloocta[de]naphthalen-5-yl)-4-(trifluoromethyl)aniline] was tested, and the IC50 was 0.17 µM. `CN(C)CCN1c2nc(OC[C@@]34CCCN3C[C@H](F)C4)nc3c(F)c(-c4cc(N)cc(Cl)c4C(F)(F)F)nc(c23)OCCC12COC2` [Example 44, 3-chloro-5-(11-(2-(dimethylamino)ethyl)-4-fluoro-2-(((2R,7aS)-2-fluorotetrahydro-1H-pyrrolizin-7a(5H)-yl)methoxy)-8,9-dihydro-11H-7-oxa-1,3,6,11-tetraazaspiro[cycloocta[de]naphthalene-10,3′-oxetan]-1(11a), 2,3a, 4,6-pentaen-5-yl)-4-(trifluoromethyl)aniline] gave an IC50 of 0.0034 µM. With `Nc1cc(Cl)c(C(F)(F)F)c(-c2nc3c4c(nc(OC[C@@]56CCCN5C[C@H](F)C6)nc4c2F)N([C@@H]2CCNC2)CCCO3)c1` [Example 41, 3-chloro-5-(4-fluoro-2-(((2R,7aS)-2-fluorotetrahydro-1H-pyrrolizin-7a(5H)-yl)methoxy)-11-((R)-pyrrolidin-3-yl)-8,9,10,11-tetrahydro-7-oxa-1,3,6,11-tetraazacycloocta[de]naphthalen-5-yl)-4-(trifluoromethyl)aniline] the IC50 was 0.27 µM. Work on `CC(CN(C)C)N1CCCOc2nc(-c3cc(N)cc(Cl)c3C(F)(F)F)c(F)c3nc(OC[C@@]45CCCN4C[C@H](F)C5)nc1c23` (stereo partly drawn) [Example 40, 3-chloro-5-(11-(1-(dimethylamino)propan-2-yl)-4-fluoro-2-(((2R,7aS)-2-fluorotetrahydro-1H-pyrrolizin-7a(5H)-yl)methoxy)-8,9,10,11-tetrahydro-7-oxa-1,3,6,11-tetraazacycloocta[de]naphthalen-5-yl)-4-(trifluoromethyl)aniline] yielded an IC50 of 0.166 µM. `CNCCN1c2nc(OC[C@@]34CCCN3C[C@H](F)C4)nc3c(F)c(-c4cc(N)cc(Cl)c4C(F)(F)F)nc(c23)OCCC1C` (stereo partly drawn) [Example 20, 3-chloro-5-(4-fluoro-2-(((2R,7aS)-2-fluorotetrahydro-1H-pyrrolizin-7a(5H)-yl)methoxy)-10-methyl-11-(2-(methylamino)ethyl)-8,9,10,11-tetrahydro-7-oxa-1,3,6,11-tetraazacycloocta[de]naphthalen-5-yl)-4-(trifluoromethyl)aniline] was tested, and the IC50 was 0.013 µM. `CNCCN1c2nc(OC[C@@]34CCCN3C[C@H](F)C4)nc3c(F)c(-c4cc(N)cc(Cl)c4C(F)(F)F)nc(c23)OCC12CCC2` [Example 36, 3-chloro-5-(4′-fluoro-2′-(((2R,7aS)-2-fluorotetrahydro-1H-pyrrolizin-7a(5H)-yl)methoxy)-10′-(2-(methylamino)ethyl)-8′H, 10′H-7′-oxa-1′,3′,6′,10′-tetraazaspiro[cyclobutane-1,9′-cyclohepta[de]naphthalen]-1′(10a′), 2′0.3a′, 3 al′(6a′), 5′-pentaen-5′-yl)-4-(trifluoromethyl)aniline] was tested, and the IC50 was 0.03 µM. `CNCC(C)N1c2nc(OC[C@@]34CCCN3C[C@H](F)C4)nc3c(F)c(-c4cc(N)cc(Cl)c4C(F)(F)F)nc(c23)OCC12CCC2` (stereo partly drawn) [Example 38, 3-chloro-5-(4′-fluoro-2′-(((2R,7aS)-2-fluorotetrahydro-1H-pyrrolizin-7a(5H)-yl)methoxy)-10′-(1-(methylamino)propan-2-yl)-8′H, 10′H-7′-oxa-1′,3′,6′,10′-tetraazaspiro[cyclobutane-1,9′-cyclohepta[de]naphthalen]-1′(10a′), 2′,3a′, 3 al′(6a′), 5′-pentaen-5′-yl)-4-(trifluoromethyl)aniline] was tested, and the IC50 was 0.01 µM.
